Test results as given in publication PMC4336329 (PLoS ONE, 2015).
The whole screen tested about 310,000 compounds, of which about 14,000 (4.5%) showed an effect of 50% or more. Effects have a minus sign here. This is one part of the list.

Target: human ether-à-go-go-related gene (hERG) potassium channel (human, UniProt Q12809)
Assay: primary screen, population patch clamp on CHO cells stably expressing hERG
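Further: peak tail current of the secondary pulse compared with the same well before compound.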

Sequence of human ether-à-go-go-related gene (hERG) potassium channel (Q12809 whole entry, looked up): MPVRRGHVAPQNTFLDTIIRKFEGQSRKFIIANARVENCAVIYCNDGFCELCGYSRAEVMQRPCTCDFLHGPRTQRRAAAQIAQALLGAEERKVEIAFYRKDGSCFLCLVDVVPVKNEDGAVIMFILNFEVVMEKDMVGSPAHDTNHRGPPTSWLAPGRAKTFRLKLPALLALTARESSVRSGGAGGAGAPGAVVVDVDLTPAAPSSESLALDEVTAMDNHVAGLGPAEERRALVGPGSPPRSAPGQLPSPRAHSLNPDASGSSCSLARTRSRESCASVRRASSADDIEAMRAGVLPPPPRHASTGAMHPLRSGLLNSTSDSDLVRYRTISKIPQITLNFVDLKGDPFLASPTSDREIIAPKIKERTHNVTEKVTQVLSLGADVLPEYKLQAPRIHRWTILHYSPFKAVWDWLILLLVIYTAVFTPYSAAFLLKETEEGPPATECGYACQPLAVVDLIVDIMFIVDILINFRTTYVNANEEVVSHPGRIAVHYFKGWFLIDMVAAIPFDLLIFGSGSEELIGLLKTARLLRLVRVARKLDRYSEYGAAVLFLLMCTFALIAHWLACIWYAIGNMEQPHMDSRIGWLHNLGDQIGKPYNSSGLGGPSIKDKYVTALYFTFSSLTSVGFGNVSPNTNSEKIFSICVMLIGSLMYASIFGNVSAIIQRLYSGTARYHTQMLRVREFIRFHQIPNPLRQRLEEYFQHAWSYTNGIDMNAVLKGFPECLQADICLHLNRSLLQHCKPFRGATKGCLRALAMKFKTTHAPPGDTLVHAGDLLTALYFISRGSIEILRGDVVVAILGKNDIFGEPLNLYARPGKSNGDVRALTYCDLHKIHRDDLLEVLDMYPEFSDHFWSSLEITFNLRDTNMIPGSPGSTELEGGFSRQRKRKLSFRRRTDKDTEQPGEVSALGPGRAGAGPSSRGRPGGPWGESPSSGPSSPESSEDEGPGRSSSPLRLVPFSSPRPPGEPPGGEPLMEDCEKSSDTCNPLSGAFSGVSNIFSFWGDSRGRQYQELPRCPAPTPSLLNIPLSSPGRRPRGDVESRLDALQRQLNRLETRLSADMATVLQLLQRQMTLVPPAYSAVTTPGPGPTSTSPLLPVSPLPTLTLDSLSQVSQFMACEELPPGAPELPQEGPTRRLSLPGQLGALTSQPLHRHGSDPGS

| Structure (SMILES) | hERG current change (%, negative = inhibition) at 10uM [%] |
| --- | --- |
| Cc1ccc(C(=O)Nc2sc3c(c2C(=O)O)CCCCC3)o1 | 11.3 |
| NS(=O)(=O)c1ccc(NC(=S)N2CCN(S(=O)(=O)c3ccc(F)cc3)CC2)cc1 | 10.1 |
| O=C1N(Cc2cccnc2)C[C@@H]2C[C@@H](c3ccc4nonc4c3)N3CCC[C@@]123 | -59.1 |
| CC(C)Cc1nnc(NC(=O)C2CCN(C(=O)c3ccc(Cl)cc3)CC2)s1 | -29.2 |
| COCc1cc(C)nc(N2CCc3ccccc32)c1C#N | 3.29 |
| O=C(Cn1cnc2ccccc2c1=O)c1ccc(OC(F)F)cc1 | -30.9 |
| CCC(=O)Nc1nc2ccc(NC(=O)c3cc(OC)c(OC)c(OC)c3)cc2s1 | -9.76 |
| COCc1[nH]c(=S)[nH]c(=O)c1C | 16.7 |
| CCOc1ccc(OCCC(=O)NNC(=O)c2nn(C)c(=O)c3ccccc23)cc1 | -13.1 |
| CCC(C)N1CCN(C(=O)c2cccs2)CC1.O=C(O)C(=O)O (stereo not drawn) | -10.6 |
| CCOC(=O)c1[nH]c2ccc(OC)cc2c1NC(=S)N1CCN(c2cccc(C)c2C)CC1 | 21.7 |
| COc1cccc(NC(=O)CCN2C(=O)C3CC=CCC3C2=O)c1 (stereo not drawn) | -21.4 |
| CC(Oc1ccc2c3c(c(=O)oc2c1)CCCC3)C(=O)NCC1CCC(C(=O)O)CC1 (stereo not drawn) | 13.2 |
| O=C(O)CC(Cn1cnnn1)c1ccccc1 (stereo not drawn) | 25 |
| CC1C(=O)C(C)C(c2ccc3c(c2)OCO3)NC1c1ccc2c(c1)OCO2 (stereo not drawn) | 4.38 |
| CCOc1cc(/C=C\c2nc(O)c([N+](=O)[O-])c(=O)[nH]2)ccc1OC(C)CC (stereo not drawn) | 5.36 |
| CC(Sc1c[nH]c2ccccc12)C(=O)O (stereo not drawn) | 4.26 |
| CCn1c(CC(=O)Nc2ccccc2)nnc1SCc1nc2ccccc2c(=O)[nH]1 | -6.36 |
| COc1ccc(NC(=O)CN2CCN(CC(=O)Nc3ccc4c(c3)OCO4)CC2)cc1 | -78.1 |

| Structure (SMILES) | hERG current change (%, negative = inhibition) at 10uM [%] |
| --- | --- |
| CCOc1ccc(OCC)c(NC(=O)CSc2nc3ccccc3c(=O)n2C)c1 | 5.03 |
| COc1ccc(CC(=O)Nc2nn(C)c3nc4c(C)cccc4cc23)cc1 | -1.44 |
| O=C(Nc1ccc(F)cc1)Nc1csc2ccccc12 | 2.24 |
| COCCCNC(=O)C1CCN(c2ncccn2)CC1 | 6.48 |
| OC1(Cc2cc(-c3ccccc3)no2)CCN(CCCc2ccccc2)CC1 | -77 |
| CCNC(=O)COC(=O)C1CCN(S(=O)(=O)c2ccc3c(c2)OCCO3)CC1 | 4.94 |
| CN(C)S(=O)(=O)c1ccc2c(c1)C(=NNC(N)=O)c1cc(S(=O)(=O)N(C)C)ccc1-2 | 9.19 |
| Cc1nc(-c2ccc(NS(C)(=O)=O)cc2)cs1 | 0.921 |
| CCCCOC(=O)Nc1cc(C(=O)OC)ccc1C(=O)OC | -18.4 |
| CC(C)c1[nH]nc2c1C(Cc1ccccc1)C(C#N)=C(N)O2 (stereo not drawn) | 3.09 |
| CSCCC(NC(=O)c1cccc(C)c1)C(=O)O (stereo not drawn) | 29.9 |
| O=C(Cc1cccs1)N(c1ccccc1)C1C=CS(=O)(=O)C1 (stereo not drawn) | 10.6 |
| Cc1ccccc1OCC(=O)N/N=C/c1ccc([N+](=O)[O-])o1 | -4.18 |
| NS(=O)(=O)c1cc([N+](=O)[O-])ccc1NCc1cccnc1 | -14.5 |
| COc1ccc(C(=O)N=C2SC3CS(=O)(=O)CC3N2c2ccc(C(C)=O)cc2)cc1 (stereo not drawn) | 11.7 |
| Nc1nc(NCCO)nc(NCc2ccccc2)c1[N+](=O)[O-] | 7.37 |
| Cc1cc(NC(=O)CCN2CCC(C)CC2)ccc1Br.Cl | -57.6 |
| CC(C(=O)c1c[nH]c2ccccc12)N1CCN(C(=O)c2ccco2)CC1 (stereo not drawn) | -8.49 |
| Br.CN=c1nc(-c2ccccc2)n(-c2ccccc2)s1 | -21.9 |

| Structure (SMILES) | hERG current change (%, negative = inhibition) at 10uM [%] |
| --- | --- |
| O=C1NC(C(=O)O)=CC(c2ccc([N+](=O)[O-])cc2)N1 (stereo not drawn) | 14.4 |
| Cc1ccc(S(=O)(=O)CC(=O)N(CCCN2CCOCC2)c2nc3c(F)cccc3s2)cc1.Cl | -18.1 |
| O=C(CCNC(=O)c1ccco1)Nc1ccccc1N1CCOCC1 | 18.8 |
| COc1ccc(NC(=O)COC(=O)C2CCN(S(=O)(=O)c3ccccc3)CC2)cc1Cl | -21.2 |
| CCCCc1c(O)cc(C)[nH]c1=O | 21.4 |
| O=C(/C=C/c1ccco1)NC(=S)Nc1cc(C(F)(F)F)ccc1N1CCOCC1 | 17.4 |
| COc1ccc(CCNC(=O)CSc2ccc(NC(C)=O)cc2)cc1OC | 19 |
| O=C(O)C1OC2OC3(CCCCC3)OC2C2OC3(CCCCC3)OC12 (stereo not drawn) | 3.07 |
| CC(=O)Nc1cc(N2C(=O)CCC2=O)ccc1Cl | -1.27 |
| O=C(CN(Cc1ccccc1)S(=O)(=O)c1ccccc1)N1CCOCC1 | -0.744 |
| CCC(=O)NCCc1nc2cc(NC(=O)c3cccs3)ccc2n1C | 5.09 |
| Cc1cnn(CCC(=O)NNC(=S)Nc2cccc(Cl)c2)c1 | 0.594 |
| COC(=O)C1=C(c2cc3ccccc3o2)C[C@@H]2CC[C@H]1N2C(=O)N1CCOCC1 | 2.81 |
| Cc1cccc(C(=O)Nc2nnc(Cc3c[nH]c4ccccc34)s2)c1 | 12.7 |
| CCNC(=O)COc1cccc(C(=O)NCc2ccccc2)c1 | 3.61 |
| COc1ccc(C2(CNC(=O)Cc3ccc(OC)c(OC)c3)CCOCC2)cc1 | 13 |
| CCOC(=O)c1[nH]c2ccccc2c1NC(=O)c1ccc(S(=O)(=O)N2CCCC2)cc1 | 0.437 |
| O=C(CCCC(=O)N(CC(=O)NC1CCCCC1)c1ccccc1F)Nc1ccccn1 | -3.61 |
| O=C(NCCc1ccccc1)C1CCC(CNS(=O)(=O)c2ccc(F)cc2)CC1 (stereo not drawn) | 4.08 |
